Data published in a collection of fitness landscapes (doi:10.1126/science.1257360).
Some of the results follow.

B1: PhoQ; a variant is named by its letters at X, in order, P23837 (parent)
chain: MKKLLRLFFPLSLRVRFLLATAAVVLVLSLAYGMVALIGYSVSFDKTTFRLLRGESNLFYTLAKWENNKLHVELPENIDKQSPTMTLIYDENGQLLWAQRDVPWLMKMIQPDWLKSNGFHEIEADVNDTSLLLSGDHSIQQQLQEVREDDDDAEMTHSVAVNVYPATSRMPKLTIVVVDTIPVELKSSYMVWSWFIYVLSANLLLVIPLLWVAAWWSLRPIEALAKEVRELEEHNRELLNPATTRELTSLVRNLNRLLKSERERYDKYRTTLTDLTHSLKTPLXXLQXXLRSLRSEKMSVSDAEPVMLEQISRISQQIGYYLHRASMRGGTLLSRELHPVAPLLDNLTSALNKVYQRKGVNISLDISPEISFVGEQNDFVEVMGNVLDNACKYCLEFVEISARQTDEHLYIVVEDDGPGIPLSKREVIFDRGQRVDTLRPGQGVGLAVAREITEQYEGKIVAGESMLGGARMEVIFGRQHSAPKDE

Variants of: B1
Assay: enrichment ratio after two sorts for PhoP signalling (ratio (wild type AVST 3.29)); higher = more functional
Conditions: with PhoP (E. coli)

| Variant | enrichment ratio |
| --- | --- |
| VMWT | ≤ 0.25 |
| KSYN | ≤ 0.25 |
| LVEW | ≤ 0.25 |
| VILW | ≤ 0.25 |
| KMYC | ≤ 0.25 |
| SVQL | 4.26 |
| SEVP | ≤ 0.25 |
| YLRW | ≤ 0.25 |
| IPST | ≤ 0.25 |
| TPVP | ≤ 0.25 |
| NKRL | ≤ 0.25 |
| LWNY | ≤ 0.25 |
| SGLK | 1.86 |
| KCDS | ≤ 0.25 |
| TATW | ≤ 0.25 |
| RVNH | ≤ 0.25 |
| GWGG | ≤ 0.25 |
| MENF | ≤ 0.25 |
| NPPI | ≤ 0.25 |
| FRVC | ≤ 0.25 |
| HCFT | ≤ 0.25 |
| DSWR | ≤ 0.25 |
| WIIR | ≤ 0.25 |
| MVLG | 4.6 |

| Variant | enrichment ratio |
| --- | --- |
| EFFY | ≤ 0.25 |
| HEVG | ≤ 0.25 |
| YSAN | 0.914 |
| ICHM | ≤ 0.25 |
| KCKT | ≤ 0.25 |
| KFQS | ≤ 0.25 |
| KKYM | ≤ 0.25 |
| DVKV | ≤ 0.25 |
| LFDC | ≤ 0.25 |
| WGVQ | ≤ 0.25 |
| QMRA | ≤ 0.25 |
| GCGH | ≤ 0.25 |
| MMLV | ≤ 0.25 |
| WCYM | ≤ 0.25 |
| TGTQ | 17.7 |
| KIQA | ≤ 0.25 |
| QHDF | 8.2 |
| WNNG | ≤ 0.25 |
| GRYV | ≤ 0.25 |
| DQKI | ≤ 0.25 |
| LQRN | ≤ 0.25 |
| QIEP | 2.06 |
| PWPS | ≤ 0.25 |
| DYDA | ≤ 0.25 |

| Variant | enrichment ratio |
| --- | --- |
| LTQD | ≤ 0.25 |
| LVGV | ≤ 0.25 |
| RMRE | ≤ 0.25 |
| YIYK | ≤ 0.25 |
| LSHS | ≤ 0.25 |
| LWYW | ≤ 0.25 |
| DEVS | ≤ 0.25 |
| KHIE | ≤ 0.25 |
| AFAS | ≤ 0.25 |
| QWLH | ≤ 0.25 |
| TMYA | ≤ 0.25 |
| SDDY | ≤ 0.25 |
| DCFQ | ≤ 0.25 |
| YKKT | ≤ 0.25 |
| KCKN | ≤ 0.25 |
| FAES | ≤ 0.25 |
| HLHD | ≤ 0.25 |
| VRHF | ≤ 0.25 |
| VWCA | ≤ 0.25 |
| RCGI | ≤ 0.25 |
| SFNY | ≤ 0.25 |
| QLYF | ≤ 0.25 |
| TMFE | ≤ 0.25 |
| NIGY | ≤ 0.25 |

| Variant | enrichment ratio |
| --- | --- |
| HYIS | ≤ 0.25 |
| VIRQ | ≤ 0.25 |
| NQLV | ≤ 0.25 |
| QLTT | ≤ 0.25 |
| NKDW | ≤ 0.25 |
| MQMM | ≤ 0.25 |
| LVRE | ≤ 0.25 |
| VFHF | ≤ 0.25 |
| PCIE | ≤ 0.25 |
| IVRY | ≤ 0.25 |
| QFKQ | ≤ 0.25 |
| DQEM | ≤ 0.25 |
| TMGV | 12.1 |
| TEFK | 1.68 |
| EFIQ | ≤ 0.25 |
| YEHF | ≤ 0.25 |
| QYRF | ≤ 0.25 |
| NWKM | ≤ 0.25 |
| WGAN | ≤ 0.25 |
| FSLM | 19.2 |
| IGMV | 7.79 |
| RLEI | ≤ 0.25 |
| PNKW | ≤ 0.25 |
| MDGL | ≤ 0.25 |

| Variant | enrichment ratio |
| --- | --- |
| EFPW | ≤ 0.25 |
| SMDQ | ≤ 0.25 |
| MRWA | ≤ 0.25 |
| QDAF | ≤ 0.25 |
| FSDN | ≤ 0.25 |
| MKHV | ≤ 0.25 |
| HQGH | ≤ 0.25 |
| ICMT | ≤ 0.25 |
| RWNH | ≤ 0.25 |
| FYCA | ≤ 0.25 |
| MGHL | 19.3 |
| RTMC | ≤ 0.25 |
| GYVD | ≤ 0.25 |
| IGVW | ≤ 0.25 |
| LERD | ≤ 0.25 |
| KMRC | ≤ 0.25 |
| GDRK | ≤ 0.25 |
| SQWT | 3.36 |
| DSSR | ≤ 0.25 |
| HNHN | ≤ 0.25 |
| HWPY | ≤ 0.25 |
| HPWV | ≤ 0.25 |
| LGYK | ≤ 0.25 |
| QTIV | ≤ 0.25 |

| Variant | enrichment ratio |
| --- | --- |
| NLDQ | ≤ 0.25 |
| RNLF | ≤ 0.25 |
| IEGP | ≤ 0.25 |
| SMRE | ≤ 0.25 |
| QNQM | ≤ 0.25 |
| FSRM | ≤ 0.25 |
| QFLS | ≤ 0.25 |
| ENAI | ≤ 0.25 |
| HDWC | ≤ 0.25 |
| QLHE | ≤ 0.25 |
| ATSV | 12.7 |
| WTSF | ≤ 0.25 |
| YQRC | ≤ 0.25 |
| LKMR | 0.996 |
| DCYR | ≤ 0.25 |
| VHER | ≤ 0.25 |
| NTAW | ≤ 0.25 |
| PFWT | ≤ 0.25 |
| RGPY | ≤ 0.25 |
| AATK | ≤ 0.25 |
| QCRI | ≤ 0.25 |
| PDLR | ≤ 0.25 |
| IFPE | ≤ 0.25 |
| DCRY | ≤ 0.25 |

| Variant | enrichment ratio |
| --- | --- |
| KIER | ≤ 0.25 |
| LDQQ | ≤ 0.25 |
| RYAY | ≤ 0.25 |
| SKFA | ≤ 0.25 |
| AIFD | ≤ 0.25 |
| ILEW | ≤ 0.25 |
| FNYI | ≤ 0.25 |
| AMPQ | ≤ 0.25 |
| GVSE | ≤ 0.25 |
| DDKT | ≤ 0.25 |
| IYFY | ≤ 0.25 |
| SHDN | ≤ 0.25 |
| KQKP | ≤ 0.25 |
| ELYE | ≤ 0.25 |
| HDLE | ≤ 0.25 |
| MYNR | ≤ 0.25 |
| FIFK | ≤ 0.25 |
| SHEH | ≤ 0.25 |
| IAFV | ≤ 0.25 |
| IHAH | ≤ 0.25 |
| TDQF | ≤ 0.25 |
| HHKS | ≤ 0.25 |
| RMNL | ≤ 0.25 |
| DCQI | ≤ 0.25 |

| Variant | enrichment ratio |
| --- | --- |
| DNVC | ≤ 0.25 |
| WCKP | ≤ 0.25 |
| SQEW | ≤ 0.25 |
| LPHY | ≤ 0.25 |
| DTDN | ≤ 0.25 |
| IGLQ | 6.04 |
| PKTH | ≤ 0.25 |
| YVSS | 0.281 |
| MKKA | ≤ 0.25 |
| SQMS | 17.9 |
| YWDR | ≤ 0.25 |
| YECK | ≤ 0.25 |
| YFLV | ≤ 0.25 |
| DTDK | ≤ 0.25 |
| GGRG | ≤ 0.25 |
| QCHG | ≤ 0.25 |
| NHVR | ≤ 0.25 |
| LIRD | ≤ 0.25 |
| RNDS | ≤ 0.25 |
| MQES | ≤ 0.25 |
| EFTL | 0.438 |
| RFSL | ≤ 0.25 |
| LLYH | ≤ 0.25 |
| MNGQ | ≤ 0.25 |

| Variant | enrichment ratio |
| --- | --- |
| KAGD | ≤ 0.25 |
| LYAC | ≤ 0.25 |
| AQTF | 4.1 |
| GYFH | ≤ 0.25 |
| KKGH | ≤ 0.25 |
| GVTD | ≤ 0.25 |
| TIQG | 9.15 |
| EHSR | ≤ 0.25 |
| PLWF | ≤ 0.25 |
| ICTK | ≤ 0.25 |
| TYPG | ≤ 0.25 |
| YRAH | ≤ 0.25 |
| FWNR | ≤ 0.25 |
| VMRH | ≤ 0.25 |
| DLFM | ≤ 0.25 |
| QFSK | ≤ 0.25 |
| TRCN | 5.74 |
| RNFF | ≤ 0.25 |
| ITMI | 4.22 |
| RPCY | ≤ 0.25 |
| RKVY | ≤ 0.25 |
| ATLA | 9.51 |
| IPFC | ≤ 0.25 |
| PPGI | ≤ 0.25 |

| Variant | enrichment ratio |
| --- | --- |
| DGHG | ≤ 0.25 |
| QHMW | ≤ 0.25 |
| TQEP | ≤ 0.25 |
| INPP | ≤ 0.25 |
| EGEY | ≤ 0.25 |
| RDLI | ≤ 0.25 |
| KVYI | ≤ 0.25 |
| SRGR | ≤ 0.25 |
| LAFW | ≤ 0.25 |
| PAMA | ≤ 0.25 |
| THAS | 1.94 |
| DWVW | ≤ 0.25 |
| QSGR | ≤ 0.25 |
| DMKT | ≤ 0.25 |
| DRPN | ≤ 0.25 |
| KHFN | ≤ 0.25 |
| EACG | ≤ 0.25 |
| RHFT | ≤ 0.25 |
| NIHR | ≤ 0.25 |
| TQNH | 16.3 |
| PWWG | ≤ 0.25 |
| YDTH | ≤ 0.25 |
| PSYC | ≤ 0.25 |
| WHTN | ≤ 0.25 |

| Variant | enrichment ratio |
| --- | --- |
| RNFK | ≤ 0.25 |
| WWPS | ≤ 0.25 |
| NVFF | ≤ 0.25 |
| WDKY | ≤ 0.25 |
| LMCV | ≤ 0.25 |
| WTIK | ≤ 0.25 |
| IDLA | ≤ 0.25 |
| DYDH | ≤ 0.25 |
| FNVH | ≤ 0.25 |
| KRLY | ≤ 0.25 |
| DSVP | ≤ 0.25 |
| SQAN | 6.83 |
| FKAQ | ≤ 0.25 |
| FDPW | ≤ 0.25 |
| EAWP | ≤ 0.25 |
| LCGQ | ≤ 0.25 |
| DCVI | ≤ 0.25 |
| RQVF | ≤ 0.25 |
| KNRK | ≤ 0.25 |
| FTFC | ≤ 0.25 |
| GCKV | ≤ 0.25 |
| QVNC | ≤ 0.25 |
| NYQP | ≤ 0.25 |
| NVFQ | ≤ 0.25 |

| Variant | enrichment ratio |
| --- | --- |
| MDRR | ≤ 0.25 |
| TFMK | ≤ 0.25 |
| DFLH | ≤ 0.25 |
| ALPA | ≤ 0.25 |
| GTED | ≤ 0.25 |
| SLDL | ≤ 0.25 |
| TMWP | ≤ 0.25 |
| HVMF | ≤ 0.25 |
| VDTT | ≤ 0.25 |
| NYEC | ≤ 0.25 |
| KYTR | ≤ 0.25 |
| FKQM | ≤ 0.25 |
| MSWC | 4.27 |
| ASPN | ≤ 0.25 |
| EPLH | ≤ 0.25 |
| DPFH | ≤ 0.25 |
| PTPA | ≤ 0.25 |
| NRYS | ≤ 0.25 |
| RLNG | ≤ 0.25 |
| FNWF | ≤ 0.25 |
| PNYQ | ≤ 0.25 |
| YACL | 5.67 |
| LVWP | ≤ 0.25 |
| CSIP | ≤ 0.25 |

| Variant | enrichment ratio |
| --- | --- |
| DRWM | ≤ 0.25 |
| VQAL | ≤ 0.25 |
| SFEM | 4.71 |
| TVYP | ≤ 0.25 |
| GTEY | ≤ 0.25 |
| GHGT | ≤ 0.25 |
| QYCG | ≤ 0.25 |
| ECGI | ≤ 0.25 |
| SPPW | ≤ 0.25 |
| SAHI | ≤ 0.25 |
| CVCT | ≤ 0.25 |
| WGDG | ≤ 0.25 |
| QPPR | ≤ 0.25 |
| MPRI | ≤ 0.25 |
| AQRV | 0.258 |
| EIGW | ≤ 0.25 |
| RYAW | ≤ 0.25 |
| YTDT | ≤ 0.25 |
